Experimental data: article PMC12136788
Numbering of substitutions follows the chain as printed. The list shows a part of the results.

T1: UNK ZnF1-3 (human, UniProt Q9C0B0 31-174)
T1 sequence: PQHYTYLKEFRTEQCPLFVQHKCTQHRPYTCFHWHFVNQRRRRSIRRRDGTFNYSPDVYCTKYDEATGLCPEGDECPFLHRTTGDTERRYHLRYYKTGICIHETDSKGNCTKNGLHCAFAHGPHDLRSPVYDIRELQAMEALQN

B1: chr5:132203191:132203192:+_ENSG00000164405_ENST00000378667|hu_mus|motif|central (ssRNA)
RNA: GGGAGUUCUACAGUCCGACGAUCAUUCUUCCUUUUCGACUGCUCAAACUCCUGGUUGCCCCAUGUGUAGAUCAGGUAGACCACGGCAAACGGCGGCGCCACGCGCAGGAUGCGCUCGCGAGUGCGGCGCAGCACGUUGGGGAUCAACAGAGGAUUGAGCAUCA
B2: chr7:44244176:44244177:+_ENSG00000106636_ENST00000223369|hu_mus|hu_hu_hu_mus_False|58_58 (ssRNA)
RNA: GGGAGUUCUACAGUCCGACGAUCACUGUCGCUCCGGACGUAGACAUGGCAAAGAUACUCUUGUUCUUUGACAGAAGCUCUAGUGCCUUUCCCCGAGCGUUCCACAAUCAGUUGACUUGUAAAGGUCAUGAAUUCCUGCACACUCAACAGAGGAUUGAGCAUCA
B3: chr16:71807222:71807223:-_ENSG00000166747_ENST00000299980|perfect_dup|FALSE|FALSE (ssRNA)
RNA: GGGAGUUCUACAGUCCGACGAUCUCCCGCAAGAUCUCUGCACAUCUCCGAGGAGCCCAUGCAGCCGAGGGUACAAAGUGCUAGCCCCUGCACAAACUGCGUGCUAUGAUUAAGAUCAUUCUUGAUACAGUUGGUCAUGAGAAGCAACAGAGGAUUGAGCAUCA
B4: chr18:35833404:35833405:-_ENSMUSG00000024350_ENSMUST00000025208|mus_mus|FALSE|FALSE (ssRNA)
RNA: GGGAGUUCUACAGUCCGACGAUCCCUAGACAUAUGACCUAGGCCGACCACUCAUCCUCUCUGGCCAAUUCAUAAAAGGGCUAACAUACCGGUUUCACAAACUGUUAUGAGGAAUAAGUGAAAAAACAAAAUAAAACAGAACACCAACAGAGGAUUGAGCAUCA
B5: chr2:187370222:187370223:+_ENSG00000065548_ENST00000337859|hu_hu|motif|central (ssRNA)
RNA: GGGAGUUCUACAGUCCGACGAUCUUUCCUUUUCUUCCAGGCAAGAAAAGAUUCUAGAGUGAUUUUGGUAACAUUUGGACCGGGGGCAGAACGCUCUCUCUCAAUUAGAUCUUCUAAUGAAAUUUCAUCUUCUUUCUCUUCUUUCAACAGAGGAUUGAGCAUCA
B6: 85956359_85961431_155_3pUTR_ENSG00000074266_ENST00000351625|human|control|control (ssRNA)
RNA: GGGAGUUCUACAGUCCGACGAUCUUCCCCAACUUUUCCUUCCAGGUGCAUUUGGCGUGUUUGUAGGUGUAUCAGGGCGUUCAGUGUUUGUACCACUUUCUAUACUGACAGCGUCAUCAUUCUCGUCUCCAGAGAGGUCUGGAUCAACAGAGGAUUGAGCAUCA
B7: 168751867_168751987_1371_CDS_ENSMUSG00000027551_ENSMUST00000087971|mouse|control|control (ssRNA)
RNA: GGGAGUUCUACAGUCCGACGAUCGUGGCUGCGGAGCGAGUCCUCCCGCAUAAACGAGGCGUCACAGAUGUCGCAGUGGAACGUCUUCUUGGCAUCCAGCCUGGCCACCUGCCGGCUGCUCUGCCUGCCGCUCUCCUUCUUCUCCAACAGAGGAUUGAGCAUCA
B8: chr4:106721038:106721039:+_ENSMUSG00000061887_ENSMUST00000030367|mus_mus|motif|central (ssRNA)
RNA: GGGAGUUCUACAGUCCGACGAUCUUUCCUUUUUUUAAAGAAGAAAGCAAAGAGGUUGAUUGGGGUGGGGCAUAGGGCUUGCGGGAAGCUUCCAUUAAAAAAAAAAUUCCCCCAAAGAACACCCCCCACCCCGGGAAAAAAAAACAACAGAGGAUUGAGCAUCA
B9: chr2:219460011:219460012:+_ENSG00000144580_ENST00000542068|hu_hu|motif|central (ssRNA)
RNA: GGGAGUUCUACAGUCCGACGAUCAGCUAAUACUGCUCAAGUACAAUCAUGAAGACAGAUGGAGCUGCUGAAAUUCACACGGAAACAAAGAAAAGGAUCAAGUGGACUGUCACCUUAAUCCCAAGCACCUCCCUUUUAGAGUUACAACAGAGGAUUGAGCAUCA
B10: chr5:31552970:31552971:+_ENSG00000082213_ENST00000325366|hu_mus|FALSE|FALSE (ssRNA)
RNA: GGGAGUUCUACAGUCCGACGAUCCUGGAAGCCCAGAAACAAAAGCCGGGUCUGUCACUGCGCCAAACUGCACAGCAGCCUAGCACGGUCUCAGCUCAGAGGGGACUCUUCUGAGUACACCAGGUGAGUGUCCAGGGUCCCGUACAACAGAGGAUUGAGCAUCA
B11: chr3:19126987:19126988:-_ENSMUSG00000069094_ENSMUST00000091314|mus_mus|FALSE|FALSE (ssRNA)
RNA: GGGAGUUCUACAGUCCGACGAUCGAAUCUGCAUUGCCAACCACGCUGGAGUGAAAAGCUUCGUGUGGCGUCUGUGGUAAAUAAAUGCUCAGUCUCCAGGCACAGAGCAGAGCAGCAGGUGGGAGGCGAUGAUGACAUUGACAUCAACAGAGGAUUGAGCAUCA
B12: chr19:8913615:8913616:-_ENSMUSG00000071658_ENSMUST00000096259|mus_hu|mus_mus_mus_hu_False|58_58 (ssRNA)
RNA: GGGAGUUCUACAGUCCGACGAUCAGGGUACCAAAACCUUCUGCCUGAAAUGGGUGCCCCACCCAGUAGGGAGUUGCAGCUAAAAAUAUCUGAUGCAGAAGCAGUGACUAUACGAAAGGAGGCCCCUGGGGAGGGCCAGGCCAGCAACAGAGGAUUGAGCAUCA
B13: chr19:8913615:8913616:-_ENSMUSG00000071658_ENSMUST00000096259|mus_hu|mus_mus_mus_hu_False|58_68 (ssRNA)
RNA: B12 RNA with A67C, G68A, G72C, C76G
B14: 8408022_8408142_3574_CDS_ENSG00000133026_ENST00000269243|human|control|control (ssRNA)
RNA: GGGAGUUCUACAGUCCGACGAUCCUGGGCUGCCGUGGUGUCCAGCGUGUCCUCCAGCUCUGUUUUCAGAGCUUCCAGUUCCUCACUCAAGUCCCUUUUCUGCUUUUCGGCCUUGUUCCGUGAAGCCUUCUCGGAUUCAAAGUCCAACAGAGGAUUGAGCAUCA

target: T1, UNK ZnF1-3; experiment: nsRBNS (natural sequence RNA bind-n-seq); RBNS binding buffer (assumed for nsRBNS): 25 mM Tris pH 7.5, 150 mM KCl, 3 mM MgCl2, 0.01% Triton X-100, 500 ug/ml BSA, 20 U/ml SUPERase-In, 4 C; UNK is unkempt and MSI1 is Musashi-1; names of the RNAs are library labels; protein concentration not given here; high values mean tight binding

Row | Binder | binding signal
1 | B1 | 0.872 enrichment R
2 | B2 | 0.627 enrichment R
3 | B3 | 1.22 enrichment R
4 | B4 | 0.918 enrichment R
5 | B5 | 0.988 enrichment R
6 | B6 | 0.45 enrichment R
7 | B7 | 0.582 enrichment R
8 | B8 | 2.43 enrichment R
9 | B9 | 1.6 enrichment R
10 | B10 | 0.767 enrichment R
11 | B11 | 1.09 enrichment R
12 | B12 | 1.76 enrichment R
13 | B13 | 1.47 enrichment R
14 | B14 | 0.277 enrichment R
